What is called pEC50 is the negative decadic logarithm of the EC50, by convention in mol/L. A higher pEC50 goes with a small EC50.

For series [1], the system named is Calu-3 cells. Kind of series: Permeability assay on differentiated Calu-3 cells. The series is classed as in vitro ADME, human. The settings on record: Calu-3 differentiated at ALI, 12-well Thincert 0.4 μm, apical to basolateral, 31.6 μM in DMEM/F-12 phenol red-free + 0.05% casein (∼1% DMSO), over 24 h (samples 0, 6, 24 h), fluorescence read-out, TEER ≥ 300 Ω cm^2; mean ± SEM, n ≥ 2. As to the method:
After 3 days under a humidified atmosphere, the level of the medium was lowered to culture cells on ALI, and the medium was changed every 2-3 days. Accordingly, transepithelial electrical resistance (TEER) was measured with am EVOM2 equipped with an STX3 electrode (World Precision Instruments, LLC, Hertfordshire, U.K.), and the baseline was corrected using empty inserts. […] Apparent permeability (P app) was measured on differentiated Calu-3 cells seeded on translucent 12-well […] inserts. Directly before and after the permeability assay, TEER measurements were performed, and data was excluded in the case of a drop of TEER. […] Both compartments were washed twice with assay buffer, which consists of DMEM/F-12 and Phenol Red-free (Gibco) supplemented with 0.05% (m/v) Casein (Sigma-Aldrich), and cells were adjusted in this buffer for 30 min under a humidified atmosphere. […] Linear regression of concentration-fluorescence signals was performed using Prism to calculate the concentration of samples. Finally, the apparent permeability was calculated according to the following equation: Papp=Δ[…] app is the apparent permeability [cm/s],

Series [2] has as its target T1, hY2R (Homo sapiens, UniProt P49146).
T1 construct: expressed in transfected cells
T1 sequence (P49146 1-381): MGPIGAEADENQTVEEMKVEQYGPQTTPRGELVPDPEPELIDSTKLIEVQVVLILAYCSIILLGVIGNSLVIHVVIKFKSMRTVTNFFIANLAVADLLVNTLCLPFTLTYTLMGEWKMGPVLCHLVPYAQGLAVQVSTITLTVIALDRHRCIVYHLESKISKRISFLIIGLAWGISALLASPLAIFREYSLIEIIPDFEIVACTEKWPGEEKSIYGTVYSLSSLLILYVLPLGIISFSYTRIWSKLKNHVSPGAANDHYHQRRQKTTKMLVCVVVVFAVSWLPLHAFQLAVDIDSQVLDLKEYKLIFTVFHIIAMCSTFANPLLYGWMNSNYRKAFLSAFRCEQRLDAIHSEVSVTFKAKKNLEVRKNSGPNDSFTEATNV
Nature of the series: IP1 accumulation assay, Y2R. The format is cell-based. The settings on record: COS-7 hY2R + chimeric G protein, n ≥ 2.

Series [3] deals with Calu-3 cells; read-out COS-7_hY2R_GαΔ6qi4myr. Nature of the series: Combined Calu-3 permeability and IP1 receptor activity assay, Y2R. The settings on record: Calu-3 ALI; for calculated concentration of bioactive peptide in the basolateral chamber / calculated concentration in the Calu-3 permeability assay log(sample [M]): read-out IP1/HTRF on hY2R, n ≥ 2; for calculated concentration in the Calu-3 permeability assay log(sample [M]): ± SEM. The format is in vitro ADME, human.

A short description of series [4]: Peptide stability in the Calu-3 supernatant. The series is classed as in vitro ADME, human. The settings on record: RP-HPLC fluorescence.
Series [5] has as its target T2, hY1R (Homo sapiens, UniProt P25929).
T2 construct: expressed in transfected cells
T2 sequence (P25929 1-384): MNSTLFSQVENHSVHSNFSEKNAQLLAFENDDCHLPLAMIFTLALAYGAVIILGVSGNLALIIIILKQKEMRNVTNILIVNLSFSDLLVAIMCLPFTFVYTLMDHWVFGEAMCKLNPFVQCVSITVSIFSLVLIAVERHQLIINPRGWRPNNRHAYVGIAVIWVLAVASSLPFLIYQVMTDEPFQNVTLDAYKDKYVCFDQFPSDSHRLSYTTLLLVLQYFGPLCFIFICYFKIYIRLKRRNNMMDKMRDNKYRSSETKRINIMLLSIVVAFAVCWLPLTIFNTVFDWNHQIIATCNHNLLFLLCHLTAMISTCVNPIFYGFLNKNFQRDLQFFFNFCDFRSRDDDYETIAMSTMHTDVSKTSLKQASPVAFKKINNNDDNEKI
Kind of series: IP1 accumulation assay, Y1R. The series is classed as cell-based.

Series [6] in a line: Calu-3 supernatant (peptide in assay buffer in the apical chamber on differentiated Calu-3 cells). The settings on record: human, up to 48 h.

pEC50: −log10 of the molar value. Entries after “also recorded” stand apart in the source; their conditions may differ. Non-standard residues stand in square brackets, D forms with d. Residues, ends and D or L forms follow the SMILES beside them. *: point of attachment. X1 = CN(C)c1ccc2c(c1)Oc1cc(N(C)C)ccc1C21OC(=O)c2ccc(C(=O)*)cc21; Ahx = NCCCCCC(=O)O Some results are limits rather than exact numbers.

For `O=C([O-])c1ccccc1-c1c2ccc(=O)cc-2oc2cc([O-])ccc12.[Na+].[Na+]` [Fl, fluorescein sodium, reference compound], in series [1], the “P app (apparent permeability)” value is given as 115 ± 11 × 10^–9 cm/s.

Turning to `CC[C@H](C)[C@H](NC(=O)[C@H](Cc1ccc(O)cc1)NC(=O)[C@H](Cc1c[nH]cn1)NC(=O)[C@H](CCCNC(=N)N)NC(=O)CCCCCNC(=O)[C@H](CCCCNC(=O)c1ccc2c(c1)C1(OC2=O)c2ccc(N(C)C)cc2Oc2cc(N(C)C)ccc21)NC(=O)[C@H](CO)NC(=O)[C@@H]1CCCN1C(=O)[C@@H](N)Cc1ccc(O)cc1)C(=O)N[C@@H](CC(N)=O)C(=O)N[C@@H](CC(C)C)C(=O)N[C@H](C(=O)N[C@H](C(=O)N[C@@H](CCCNC(=N)N)C(=O)N[C@@H](CCC(N)=O)C(=O)N[C@@H](CCCNC(=N)N)C(=O)N[C@@H](Cc1ccc(O)cc1)C(N)=O)[C@@H](C)O)[C@@H](C)CC` [Peptide 4, [K^4(Tam), Ahx^5–24]-NPY] (H-YPSK(X1)[Ahx]RHYINLITRQRY-NH2), in series [2] (IP1 accumulation (HTRF), read-out: Y2R pEC50 ± SEM (converted)), the EC50 is 2.57 nM. Besides, the “Y2R E max ± SEM” value in series [2] (IP1 accumulation, signals normalized to the control peptide) amounted to 98 ± 2. Besides, the “calculated concentration of bioactive peptide in the basolateral chamber” value in series [3] (10 μM apical, 2 h) is given as under 0.21 nM; in series [3] (10 μM apical, 4 h), under 0.21 nM; in series [3] (31.6 μM apical, 2 h), under 0.21 nM; in series [3] (31.6 μM apical, 4 h), under 0.21 nM. For the same compound, the “calculated concentration in the Calu-3 permeability assay log(sample [M])” value is <−9.67 log(c [M]) in series [3] (10 μM apical, 2 h); <−9.67 log(c [M]) in series [3] (10 μM apical, 4 h); <−9.67 log(c [M]) in series [3] (31.6 μM apical, 2 h); <−9.67 log(c [M]) in series [3] (31.6 μM apical, 4 h). For the same compound, the “active compound penetrating the Calu-3 cell layer (in words)” value in series [3] (10 and 31.6 μM apical, 2 and 4 h, read-out hY2R) was “no active compound measurably penetrated the Calu-3 cell layer”. For the same compound, in series [1], the “P app (apparent permeability)” value was 88 ± 4 × 10^–9 cm/s. Also, the “intact compound detectable 6 h after stimulation” value in series [4] is on record as “almost no intact compound 4 is detectable”. Further, the pEC50 in series [5] (IP1 accumulation (HTRF), COS-7 stably transfected with hY1R and chimeric G protein GαΔ6qi4myr, 45 min stimulation, n ≥ 2) was under 7.00. Besides, the “Y1R activation (in words)” value in series [5] (IP1 accumulation, hY1R) is given as “no significant activity”.

[K^4(Tam), Ahx^5–24]-NPY: the fragment found result in series [6] was “YPSK(Tam)-Ahx-R, major, 24 h; also recorded: PSK(Tam)-Ahx, major, 24 h”.

For the compound [K^4(Tam), K^7 (γGlu-C18)]-PYY3–36, the not cleaved entry in series [6] is “less than 10% degradation over 48 h”.

With [K^4(Tam), K^7 (γGlu-Odd)]-PYY3–36, in series [6], the not cleaved result is on record as “less than 10% degradation over 48 h”.

Take [K^4(Tam), K^7(γGlu-Pam)]-PYY3–36: the not cleaved result in series [6] is recorded as “less than 10% degradation over 48 h”.

Take [K^4(Tam)]-PYY3–36: in series [6], the fragment found entry is reported as “fragment 3–34, first_seen, 48 h”.
